Results: publication PMC2828485
No constants are given. Whether binding was seen depends on the method and setting. Binding seen in cells or lysates may run through a third protein. Some binding calls cover weakened binding; strength is not graded here.

Sequences of proteins named here, by UniProt entry; tags and fusion partners are left off.
UniProt Q08024: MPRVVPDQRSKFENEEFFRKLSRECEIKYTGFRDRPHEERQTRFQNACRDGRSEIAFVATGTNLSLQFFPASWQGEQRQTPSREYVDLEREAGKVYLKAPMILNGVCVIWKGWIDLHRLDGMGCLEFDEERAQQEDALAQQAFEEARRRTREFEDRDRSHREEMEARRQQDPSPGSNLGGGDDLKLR

Biological target: Flag-HA-CBFβ (stably expressed in C2C12) (mouse) (UniProt Q08024)
Assay: co-IP; simple-affinity purification on Flag resin of Flag-HA-CBFβ from proliferating C2C12-CBFβ cells (3 g pellet) against C2C12 control cells; western blot

- binding: binds
B1: Suv39h1 (endogenous, C2C12) (enzyme, UniProt O54864 1-412)
chain: MAENLKGCSVCCKSSWNQLQDLCRLAKLSCPALGVSKKNLYDFEVEYLCDYKKIREQEYYLVKWRGYPDSENTWEPRQNLKCIRVLKQFHKDLERELVRRHRRSKPPRHLDPNLANYLVQKAKQRRALQRWEQELNAKRSHLGRITVENEVDLDGPPRSFVYINEYRVGEGITLNQVAVGCECQDCLLAPTGGCCPGASLHKFAYNDQGQVRLKAGQPIYECNSRCCCGYDCPNRVVQKGIRYDLCIFRTNDGRGWGVRTLEKIRKNSFVMEYVGEIITSEEAERRGQIYDRQGATYLFDLDYVEDVYTVDAAYYGNISHFVNHSCDPNLQVYNVFIDNLDERLPRIAFFATRTIWAGEELTFDYNMQVDPVDMESTRMDSNFGLAGLPGSPKKRVRIECKCGTTACRKYLF
